# Results reported in PMC4336329 (PLoS ONE, 2015).
# Hit rate of the full screen: of about 310,000 compounds, about 14,000 (4.5%) showed an effect of 50% or more. The effect is printed as a negative number. The list shows a part of the results.
# Target: human ether-à-go-go-related gene (hERG) potassium channel (human, UniProt Q12809)
# Experiment: primary screen, population patch clamp on CHO cells stably expressing hERG
# 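Note: peak tail current of the secondary pulse compared with the same well before compound.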
# Chain of human ether-à-go-go-related gene (hERG) potassium channel (Q12809 whole entry, looked up): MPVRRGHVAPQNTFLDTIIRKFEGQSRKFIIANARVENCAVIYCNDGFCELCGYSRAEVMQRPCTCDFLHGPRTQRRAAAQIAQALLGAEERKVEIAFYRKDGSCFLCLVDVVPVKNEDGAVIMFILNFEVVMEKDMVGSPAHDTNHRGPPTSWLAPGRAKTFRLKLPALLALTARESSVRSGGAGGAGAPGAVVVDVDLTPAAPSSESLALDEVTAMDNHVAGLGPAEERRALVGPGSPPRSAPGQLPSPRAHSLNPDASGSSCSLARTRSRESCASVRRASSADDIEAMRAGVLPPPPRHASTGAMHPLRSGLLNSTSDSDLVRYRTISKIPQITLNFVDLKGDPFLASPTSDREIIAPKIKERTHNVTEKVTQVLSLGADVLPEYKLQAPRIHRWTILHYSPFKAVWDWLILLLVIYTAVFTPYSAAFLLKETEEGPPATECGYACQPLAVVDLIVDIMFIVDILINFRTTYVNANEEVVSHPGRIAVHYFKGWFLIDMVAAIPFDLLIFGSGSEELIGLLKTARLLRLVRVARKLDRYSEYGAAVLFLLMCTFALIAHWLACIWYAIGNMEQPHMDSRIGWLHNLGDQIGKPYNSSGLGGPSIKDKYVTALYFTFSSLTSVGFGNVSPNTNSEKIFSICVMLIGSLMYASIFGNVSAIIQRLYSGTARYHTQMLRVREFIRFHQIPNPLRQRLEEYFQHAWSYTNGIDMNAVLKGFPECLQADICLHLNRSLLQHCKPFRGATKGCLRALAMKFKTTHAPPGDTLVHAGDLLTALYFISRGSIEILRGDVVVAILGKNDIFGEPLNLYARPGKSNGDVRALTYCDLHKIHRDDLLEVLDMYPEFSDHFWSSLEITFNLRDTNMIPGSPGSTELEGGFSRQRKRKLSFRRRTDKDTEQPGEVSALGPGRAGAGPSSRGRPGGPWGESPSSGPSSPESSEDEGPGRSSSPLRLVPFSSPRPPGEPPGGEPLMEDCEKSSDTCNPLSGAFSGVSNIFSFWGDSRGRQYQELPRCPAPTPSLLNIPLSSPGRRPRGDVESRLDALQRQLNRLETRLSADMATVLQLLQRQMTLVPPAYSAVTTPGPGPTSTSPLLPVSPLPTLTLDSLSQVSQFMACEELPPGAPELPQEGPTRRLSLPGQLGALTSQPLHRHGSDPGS
row,SMILES,"hERG current change (%, negative = inhibition) at 10uM [%]"
1,O=C(COC(=O)c1ccc(N2CCCC2=O)cc1)c1ccc(OC(F)F)cc1,-12.2
2,CC(=O)N1N=C(c2ccc(C)o2)CC1c1ccc(F)cc1 (centres unmarked),0.533
3,O=C1c2cccc3cccc(c23)C(=O)N1Nc1ccccc1,46.2
4,CCCCOC(=O)CCN1C(=O)/C(=C2\SC(=S)N(CCC(=O)OCCCC)C2=O)SC1=S,9.11
5,Cc1ccc(N2C(=O)NC(=O)/C(=C/c3ccc(-c4ccc(C(=O)O)c(Cl)c4)o3)C2=O)cc1,6.8
6,Cc1cccc(C(=O)NC2CC3CCCC(C2)N3C(=O)NC2CCCCC2)c1 (centres unmarked),7.83
7,Cc1ccc(NC(=O)COC(=O)C2CC(=O)N(Cc3ccccc3)C2)cc1S(=O)(=O)N(C)C (centres unmarked),7.45
8,COC(=O)c1c(C)oc(C)c(C(=O)OC)c1=O,5.25
9,Cc1cccc(NC(=O)CCSc2ccccn2)c1,0.39
10,COc1ccccc1CNC(=O)COC(=O)CCC(=O)c1cccs1,1.23
11,COc1cccc(C2NC(c3cccc(OC)c3O)C(C)C(=O)C2C)c1O (centres unmarked),-8.17
12,Cc1cccnc1NC(=O)CNC(=O)C12CC3CC(CC(Cl)(C3)C1)C2,13
13,Nc1ccc(-c2cnc(-c3ccc(N)cc3)nc2)cc1,7.73
14,Cc1ccc(S(=O)(=O)N2CCC(=O)N(CCOC(=O)Nc3cccc(Cl)c3)CC2)cc1,-65.7
15,Cc1ccccc1C(=O)NNc1ccc([N+](=O)[O-])cc1,-17.3
16,Cc1cc(C)n(C(=O)CSc2nc3ccccc3o2)n1,19.3
17,CCOc1cc(/C=C2\SC(=NC)N(C)C2=O)cc(Cl)c1OC(C)=O,9.76
18,CCCS(=O)(=O)c1nc(S(=O)(=O)c2ccc(C)cc2)c(NCCCN2CCOCC2)s1,-34.7
19,O=C(Nc1cccc2ncccc12)c1ccc(F)cc1,-6.11
20,C=CCn1c(N)c(C(=O)NCc2cccnc2)sc1=S,-35.1
21,CCCN(C(=O)CCNC(=O)c1ccc(Cl)cc1)c1c(N)n(Cc2ccccc2)c(=O)[nH]c1=O,-2.34
22,CC1Cc2ccccc2N1C(=O)CCNS(=O)(=O)c1ccc2c(c1)CCC(=O)N2 (centres unmarked),-32.5

row,SMILES,"hERG current change (%, negative = inhibition) at 10uM [%]"
1,Cc1ccc(C(=O)Nc2nc3nc(-c4ccccc4)cc(=O)n3[nH]2)cc1,10.5
2,CC(=O)c1ccc(OCC(O)CN(C)Cc2cccs2)cc1 (centres unmarked),-13.9
3,NC(CSS(=O)(=O)O)=NCCC12CC3CC(CC(O)(C3)C1)C2,13.1
4,O=S(=O)(Cc1ccccc1)N1CCN(Cc2ccccc2)CC1,-0.362
5,CN(C)CCCNC(=S)N(CCCO)Cc1cc2cc3c(cc2[nH]c1=O)OCO3,17.9
6,CC(C)(C)c1nc(Sc2ncccc2[N+](=O)[O-])n[nH]1,8.77
7,Cc1nc2cc(Cl)ccc2c(=O)n1Cc1ccncc1,-3.2
8,CCN=c1scc(-c2ccc3c(c2)NC(=O)CO3)n1N=C1CCCC1,-10
9,Cc1ccc(CS(=O)Cc2ccc(C(=O)NCc3ccccc3)o2)cc1 (centres unmarked),11
10,O=C(NCC1CCCO1)c1ccc2c(=O)n(-c3ccccc3)c(=S)[nH]c2c1 (centres unmarked),7.85
11,COC(=O)CSc1nc(C)c2ccc(OC)cc2n1,2.22
12,O=C(CSc1n[nH]c(=O)[nH]c1=O)N/N=C/c1ccccc1O,11
13,COCCNC(=O)c1cn(C)c2ccc(S(=O)(=O)N3CCCCC3)cc2c1=O,11.1
14,Cc1ccc2c(CC(=O)OCC(=O)Nc3ccc(Cl)cn3)coc2c1,1.62
15,COc1ccc(-c2noc(-c3cccc(OC)c3OC)n2)cc1OC,20.4
16,Cc1nc(N/N=C/c2ccc(Br)cc2)cc(N2CCOCC2)n1,-0.525
17,O=S(=O)(c1ccccc1)N1CCN=C1SCc1cccc(Cl)c1,-14.9
18,COc1cc(S(=O)(=O)NCCc2ccc3c(c2)OCO3)ccc1-n1cnnn1,-16.3
19,CC(=O)Nc1ccc(C(=O)OCC(=O)N2CCCC2)cc1,19.2
20,Cc1c(C(=O)Nc2cc(F)ccc2F)sc2nc3n(c(=O)c12)CCCCC3,22.7
21,COC(=O)c1ccc(CC(=O)c2c(C)cc(O)cc2O)o1,0.801
22,COC(=O)c1ccc(CSc2nc3ccccc3o2)cc1,-0.236

row,SMILES,"hERG current change (%, negative = inhibition) at 10uM [%]"
1,CCC1Nc2ncnc(N3CCN(c4ccccc4)CC3)c2N(Cc2ccc(C)cc2)C1=O.O=C(O)C(F)(F)F (centres unmarked),-4.6
2,O=C(CCS(=O)(=O)c1ccc(Cl)cc1)Nc1nc(-c2cccnc2)cs1,19.5
3,CCN(CC)Cc1cc(NC2=NS(=O)(=O)c3ccccc32)ccc1OC(=O)c1ccccc1.Cl,-48.5
4,CC(C)N1CC2=C(OC(N)=C(C#N)C2c2cccnc2)/C(=C/c2cccnc2)C1 (centres unmarked),-23.6
5,Cc1ccc(S(=O)(=O)N2CCN(CC(=O)NC3CCCc4ccccc43)CC2)c(C)c1 (centres unmarked),-19.7
6,CCN(CC)C(=O)Cn1cc(/C=C(\C#N)C(=O)NC2CC2)c2ccccc21,5.57
7,Cc1noc(C)c1C(=O)OCC(=O)NC(c1ccccc1)c1ccccc1,1.47
8,CCN1C(=S)N[C@@H](CCc2ccccc2)C(C(=O)OC)=C1C,-8.11
9,COc1ccc(/C=C/C=C2\N=C(SC)SC2=O)cc1,8.3
10,COCCCNC(=O)CN(C1CCCCC1)S(=O)(=O)c1ccc(C)cc1,-0.742
11,N#CC1=C(N)N(c2ccccc2)C(c2ccccc2)C1(C#N)C#N (centres unmarked),0.751
12,CCn1c(SCC(=O)NC(C)(C)C)nnc1-c1ccncc1,16.6
13,CC(=O)c1cccc(CN(C)CC2CCCN(CCc3ccccc3C)C2)c1 (centres unmarked),-28.8
14,COc1ccc(/C=N/NC(=O)c2[nH]c3ccc(Cl)cc3c2-c2ccccc2)c(C(=O)O)c1OC,5.67
15,O=C1c2ccccc2-c2nnc(-c3ccccc3)cc21,10.6
16,Cc1ccc(S(=O)(=O)n2ccnc2)cc1C,6.47
17,S=C(NCCN1CCOCC1)N/N=C/c1c2ccccc2cc2ccccc12,-1.34
18,CC1(C)CC(=O)C(C=NCCO)=C(O)C1,18.7
19,CSc1ccccc1OCc1cc(C(=O)N(C)C(C)c2ccccn2)no1 (centres unmarked),-10.6
20,CS(=O)(=O)c1cccc(C(=O)Nc2cccc(-c3nc4ccccc4[nH]3)c2)c1,-56.7
21,Cc1nn(-c2ccccc2)c(C)c1/C=C/C(=O)OCC(=O)Nc1ccc(S(N)(=O)=O)cc1,13.1
22,COc1cc2c(cc1OC)C(c1cc(Br)ccc1F)N(C(=O)CCl)CC2 (centres unmarked),-28.6

row,SMILES,"hERG current change (%, negative = inhibition) at 10uM [%]"
1,C=CCn1c(SCC(=O)NCCCC)nc2scc(-c3ccco3)c2c1=O,-16.7
2,O=C(c1ccc(F)cc1)N1CCOC(c2nc(-c3ccc(F)cc3)no2)C1 (centres unmarked),-40
3,COc1ccc(N2CC(C(=O)Nc3nnc(SCC(=O)NCc4ccco4)s3)CC2=O)cc1 (centres unmarked),19.4
4,CC(=O)Nc1c2c(nn1-c1cccc(C)c1)CSC2,10.9
5,C=CCc1cccc(/C=N/NC(=O)CNc2ccccc2OC)c1O,12.1
6,Cc1ccc(OCCSc2ncnc3sc(C)c(C)c23)cc1C,3.4
7,COc1ccc(C(=O)Nn2cnc3ccccc3c2=O)cc1[N+](=O)[O-],-4.64
8,O=C(COc1nc2ccccc2nc1N1CCOCC1)Nc1cccc(S(=O)(=O)N2CCCCC2)c1,-3.3
9,COc1ccc(-n2c(/C=C3\C(=O)N(C)c4ccccc43)nc3ccccc3c2=O)cc1,13.6
10,CC(=O)Nc1ccc(Oc2nc(-c3cccnc3)nc3sc4c(c23)CCCC4)cc1,5.5
11,N#C/C(=C\c1c(N2CCN(c3ccccc3)CC2)nc2ccccn2c1=O)S(=O)(=O)c1ccccc1,2.28
12,CCc1ccc(OCC(=O)NCCc2ccc3c(c2)OCCO3)cc1,-28
13,CC(=O)c1ccc(N(CC(=O)NC2CCCCC2)C(=O)CNC(=O)c2ccco2)cc1,-7.74
14,O=C(COc1ccccc1[N+](=O)[O-])N(Cc1ccccc1)c1ccccn1,-15
15,O=C(N/N=C1/CC2C=CCC12)c1ccco1 (centres unmarked),-7.26
16,CCCCN(Cc1cc2cc(OC)ccc2[nH]c1=O)C(=O)c1ccccn1,-25.2
17,O=C(CN(c1ccc(F)cc1)S(=O)(=O)c1ccccc1)NCCSC1CCCCC1,-9.29
18,COc1cc(OC)cc(C(=O)Nc2ccccc2-c2nnn(CC(=O)Nc3cc(C)on3)n2)c1,2.46
19,O=C(CNS(=O)(=O)c1ccccc1)Nc1ccc(C(F)(F)F)cc1,9.32
20,COc1cc(CC(=O)OCn2nnc3ccccc3c2=O)cc(OC)c1OC,18.1
